{
  "source": "paper PMC4336329",
  "about": "(PLoS ONE, 2015)",
  "note": "About 14,000 (4.5%) of roughly 310,000 compounds showed an effect of 50% or more. Effects have a minus sign here. The list shows a part of the results.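 Note: peak tail current of the secondary pulse compared with the same well before compound.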",
  "data": [
    {"target": "human ether-à-go-go-related gene (hERG) potassium channel (human, UniProt Q12809)", "sequence (Q12809 whole entry, looked up)": "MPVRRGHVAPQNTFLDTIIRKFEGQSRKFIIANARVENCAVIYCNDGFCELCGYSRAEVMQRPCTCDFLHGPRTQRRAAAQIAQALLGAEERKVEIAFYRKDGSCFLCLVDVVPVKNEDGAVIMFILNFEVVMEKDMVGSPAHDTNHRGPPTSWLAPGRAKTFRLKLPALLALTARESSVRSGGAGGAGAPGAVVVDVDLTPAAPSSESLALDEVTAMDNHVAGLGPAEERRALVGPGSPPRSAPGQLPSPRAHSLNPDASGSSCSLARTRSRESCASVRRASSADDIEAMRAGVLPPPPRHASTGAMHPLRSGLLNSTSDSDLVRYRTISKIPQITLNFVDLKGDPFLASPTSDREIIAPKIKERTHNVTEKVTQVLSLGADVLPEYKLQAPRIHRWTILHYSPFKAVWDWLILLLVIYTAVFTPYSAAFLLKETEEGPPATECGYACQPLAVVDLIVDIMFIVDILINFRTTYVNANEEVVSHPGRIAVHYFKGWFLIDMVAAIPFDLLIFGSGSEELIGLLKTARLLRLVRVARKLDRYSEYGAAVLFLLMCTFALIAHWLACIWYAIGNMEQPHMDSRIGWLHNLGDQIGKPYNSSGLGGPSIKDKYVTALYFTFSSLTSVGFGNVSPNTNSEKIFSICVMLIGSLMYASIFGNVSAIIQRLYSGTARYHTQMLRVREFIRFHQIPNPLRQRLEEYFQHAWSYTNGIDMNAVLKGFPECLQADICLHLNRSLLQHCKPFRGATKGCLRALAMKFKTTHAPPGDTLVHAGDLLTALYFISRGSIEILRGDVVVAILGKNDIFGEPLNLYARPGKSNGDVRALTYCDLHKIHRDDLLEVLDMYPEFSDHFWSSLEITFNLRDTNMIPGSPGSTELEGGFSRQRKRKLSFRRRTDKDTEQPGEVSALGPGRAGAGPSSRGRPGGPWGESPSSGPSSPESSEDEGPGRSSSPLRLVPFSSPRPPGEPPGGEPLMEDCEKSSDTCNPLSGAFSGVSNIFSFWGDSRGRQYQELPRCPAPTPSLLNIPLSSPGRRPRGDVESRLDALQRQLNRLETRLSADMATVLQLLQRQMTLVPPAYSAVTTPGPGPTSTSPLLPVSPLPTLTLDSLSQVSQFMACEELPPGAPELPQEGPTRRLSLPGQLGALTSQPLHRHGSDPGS", "experiment": "primary screen, population patch clamp on CHO cells stably expressing hERG", "units": {"hERG current change (%, negative = inhibition) at 10uM": "%"}, "values": [
      {"smiles": "Cc1nc(N)[nH]c(=O)c1CC(=O)OCCCl", "hERG current change (%, negative = inhibition) at 10uM": -1.14},
      {"smiles": "COc1ccc(C2(c3ccc(OC)cc3)NC(=O)N(CC(=O)Nc3ccc(C(=O)N(C)C)cc3)C2=O)cc1", "hERG current change (%, negative = inhibition) at 10uM": -3.23},
      {"smiles": "COc1ccc(-c2c(C#N)c(N)nc3c2CCCCCC3)cc1OC", "hERG current change (%, negative = inhibition) at 10uM": 8.69},
      {"smiles": "CSc1nc(NS(=O)(=O)c2cc(Br)ccc2Br)cc(=O)[nH]1", "hERG current change (%, negative = inhibition) at 10uM": 23.3},
      {"smiles": "O=C(COC(=O)C1CCN(S(=O)(=O)c2ccc3c(c2)OCCO3)CC1)NC1CCCCC1", "hERG current change (%, negative = inhibition) at 10uM": -29.1},
      {"smiles": "Nc1c(Cl)cc(NC(=O)c2ccccc2C(=O)O)cc1Br", "hERG current change (%, negative = inhibition) at 10uM": -14.8},
      {"smiles": "O=c1[nH][nH]c2nc(C(F)(F)F)cc(C(F)(F)F)c12", "hERG current change (%, negative = inhibition) at 10uM": -2.36},
      {"smiles": "Cc1csc(SC(C)c2nc3scc(-c4ccccc4)c3c(=O)[nH]2)n1", "note": "(stereo not drawn)", "hERG current change (%, negative = inhibition) at 10uM": 6.61},
      {"smiles": "CCCCCc1nc2c(c3c1CCCC3)CCCC2", "hERG current change (%, negative = inhibition) at 10uM": -71.7},
      {"smiles": "CNC(=O)NC(=O)COC(=O)c1ccc(-n2c(C)ccc2C)cc1", "hERG current change (%, negative = inhibition) at 10uM": -7.41},
      {"smiles": "CCOC(=O)N1CCN(C(=O)C2CCN(S(=O)(=O)c3cc(Cl)ccc3Cl)CC2)CC1", "hERG current change (%, negative = inhibition) at 10uM": -32.4},
      {"smiles": "CCC(=O)Nc1cc(-c2nn3c(C)nnc3s2)ccc1C", "hERG current change (%, negative = inhibition) at 10uM": 7.79},
      {"smiles": "COc1ccc(C2SCC(=O)N2c2c(C)n(C)n(-c3ccccc3)c2=O)c(OC)c1", "note": "(stereo not drawn)", "hERG current change (%, negative = inhibition) at 10uM": 3.29},
      {"smiles": "CN(C)S(=O)(=O)c1cccc(NC(=O)c2cc(-c3cccs3)nn2-c2cccc(Cl)c2)c1", "hERG current change (%, negative = inhibition) at 10uM": 11.6},
      {"smiles": "CCOC(=O)COc1ccc(C(=O)Nc2cccc(Cl)c2C)cc1", "hERG current change (%, negative = inhibition) at 10uM": 18.9},
      {"smiles": "CCCn1ncc(C(=O)O)c1C", "hERG current change (%, negative = inhibition) at 10uM": 11.1},
      {"smiles": "COC(=O)C1=C2SC(C)C(=O)N2C(N)=C(C#N)C1c1cc(OC)c(OC)c(OC)c1", "note": "(stereo not drawn)", "hERG current change (%, negative = inhibition) at 10uM": -2.42},
      {"smiles": "O=C(c1cc(C2CC2)nn1-c1ccccc1)N1CCN(c2ncc(C(F)(F)F)cc2Cl)CC1", "hERG current change (%, negative = inhibition) at 10uM": -12.9},
      {"smiles": "CCOc1ccc(CCNC(=O)COC(=O)c2cccc(S(=O)(=O)N3CCCC3)c2)cc1OCC", "hERG current change (%, negative = inhibition) at 10uM": -12.3},
      {"smiles": "CC(C)Cn1nc(NS(=O)(=O)c2ccccc2)c2cc3ccccc3nc21", "hERG current change (%, negative = inhibition) at 10uM": 6.23},
      {"smiles": "Cc1ccc(NC2c3ncccc3C(=O)N2Cc2ccco2)c(C)c1", "note": "(stereo not drawn)", "hERG current change (%, negative = inhibition) at 10uM": -6.03},
      {"smiles": "CC(C)=CCc1c(O)cc2c(=O)c3ccc(O)cc3oc2c1O", "hERG current change (%, negative = inhibition) at 10uM": -4.26},
      {"smiles": "Cc1sc2c(=O)n3c(nc2c1C(=O)NC1CCCCC1)CCCCC3", "hERG current change (%, negative = inhibition) at 10uM": 6.81},
      {"smiles": "O=C(c1ccccc1O)N1N=C(c2ccccc2)CC1(O)C(F)(F)F", "note": "(stereo not drawn)", "hERG current change (%, negative = inhibition) at 10uM": -9.34},
      {"smiles": "COc1cccc(NC(=O)CN(C)C(=O)c2cccnc2Sc2ccc(C)c(C)c2)c1", "hERG current change (%, negative = inhibition) at 10uM": 14.3},
      {"smiles": "CCc1cccc(CC)c1NC(=O)CN1CCc2cc(OC)c(OC)cc2C1", "hERG current change (%, negative = inhibition) at 10uM": 17.2},
      {"smiles": "CCC(C)c1ccc(O)c(NC(=O)c2cccnc2)c1", "note": "(stereo not drawn)", "hERG current change (%, negative = inhibition) at 10uM": 9.34},
      {"smiles": "Fc1cccc(NC(=S)NCc2cccnc2)c1", "hERG current change (%, negative = inhibition) at 10uM": 9.79},
      {"smiles": "COc1ccccc1C(=O)Nc1c(C(=O)N2CCN(C)CC2)oc2ccccc12", "hERG current change (%, negative = inhibition) at 10uM": -45.2},
      {"smiles": "O=C(c1ccc([N+](=O)[O-])cc1)N1CCN(c2cccc3[nH]ccc23)CC1", "hERG current change (%, negative = inhibition) at 10uM": -72.7},
      {"smiles": "O=C(c1ccco1)N1CCN=C1SCc1c(F)cccc1Cl", "hERG current change (%, negative = inhibition) at 10uM": -3.64},
      {"smiles": "Nc1nccnc1C(=O)OCC(=O)Nc1cccc(S(=O)(=O)N2CCCCC2)c1", "hERG current change (%, negative = inhibition) at 10uM": -34.1},
      {"smiles": "Clc1cccc(CNCCNCc2cccc(Cl)c2)c1", "hERG current change (%, negative = inhibition) at 10uM": -46.2},
      {"smiles": "COc1ccccc1-n1c(CNCC2CCCO2)nc2ccccc2c1=O", "note": "(stereo not drawn)", "hERG current change (%, negative = inhibition) at 10uM": -8.61},
      {"smiles": "COc1ccccc1N(C)S(=O)(=O)c1ccc(C(=O)N(C)Cc2ccc(Cl)s2)cc1", "hERG current change (%, negative = inhibition) at 10uM": -18.5},
      {"smiles": "CN(C)c1ccc(Sc2nnc(NC(=O)Nc3ccc(Cl)cc3Cl)s2)cc1", "hERG current change (%, negative = inhibition) at 10uM": 12.2},
      {"smiles": "C/C(=N\\N=C\\c1ccc(N(C)C)cc1)c1cccc([N+](=O)[O-])c1", "hERG current change (%, negative = inhibition) at 10uM": 1.88},
      {"smiles": "COc1ccccc1CN1CCNC(=O)C1CC(=O)N(C)CC1CCOCC1", "note": "(stereo not drawn)", "hERG current change (%, negative = inhibition) at 10uM": 21.3},
      {"smiles": "CCCCc1cc(=O)oc2cc(C)cc(OCC(=O)N3CCC(C(=O)O)CC3)c12", "hERG current change (%, negative = inhibition) at 10uM": 13.2},
      {"smiles": "CCCC(=O)Nc1cc(C)cn(Cc2c(F)cccc2Cl)c1=O", "hERG current change (%, negative = inhibition) at 10uM": 0.776},
      {"smiles": "C[C@@H](O)c1nc2ccccc2n1N", "hERG current change (%, negative = inhibition) at 10uM": 9.12},
      {"smiles": "COc1ccc(Cl)cc1NS(=O)(=O)c1ccc(S(=O)(=O)N2CCCC2)cc1", "hERG current change (%, negative = inhibition) at 10uM": -14.2},
      {"smiles": "O=C(Nc1ccc(Cl)cc1F)C1CC1c1ccccc1", "note": "(stereo not drawn)", "hERG current change (%, negative = inhibition) at 10uM": 12.6},
      {"smiles": "Cc1c(C(=O)Cc2ccccc2)n(C)c2ccccc12", "hERG current change (%, negative = inhibition) at 10uM": 10.8},
      {"smiles": "Cc1csc(NC(=O)C2=COCCO2)n1", "hERG current change (%, negative = inhibition) at 10uM": 8.14}
    ]}
  ]
}
